From publication PMC4336329 (PLoS ONE, 2015)
Screen size: about 310,000 compounds; about 14,000 (4.5%) showed an effect of 50% or more. Effects have a minus sign here. The list shows a part of the results.

What follows are compounds tested against human ether-à-go-go-related gene (hERG) potassium channel (human, UniProt Q12809) (assay: primary screen, population patch clamp on CHO cells stably expressing hERG).
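Note: peak tail current of the secondary pulse compared with the same well before compound.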

Sequence of human ether-à-go-go-related gene (hERG) potassium channel (Q12809 whole entry, looked up): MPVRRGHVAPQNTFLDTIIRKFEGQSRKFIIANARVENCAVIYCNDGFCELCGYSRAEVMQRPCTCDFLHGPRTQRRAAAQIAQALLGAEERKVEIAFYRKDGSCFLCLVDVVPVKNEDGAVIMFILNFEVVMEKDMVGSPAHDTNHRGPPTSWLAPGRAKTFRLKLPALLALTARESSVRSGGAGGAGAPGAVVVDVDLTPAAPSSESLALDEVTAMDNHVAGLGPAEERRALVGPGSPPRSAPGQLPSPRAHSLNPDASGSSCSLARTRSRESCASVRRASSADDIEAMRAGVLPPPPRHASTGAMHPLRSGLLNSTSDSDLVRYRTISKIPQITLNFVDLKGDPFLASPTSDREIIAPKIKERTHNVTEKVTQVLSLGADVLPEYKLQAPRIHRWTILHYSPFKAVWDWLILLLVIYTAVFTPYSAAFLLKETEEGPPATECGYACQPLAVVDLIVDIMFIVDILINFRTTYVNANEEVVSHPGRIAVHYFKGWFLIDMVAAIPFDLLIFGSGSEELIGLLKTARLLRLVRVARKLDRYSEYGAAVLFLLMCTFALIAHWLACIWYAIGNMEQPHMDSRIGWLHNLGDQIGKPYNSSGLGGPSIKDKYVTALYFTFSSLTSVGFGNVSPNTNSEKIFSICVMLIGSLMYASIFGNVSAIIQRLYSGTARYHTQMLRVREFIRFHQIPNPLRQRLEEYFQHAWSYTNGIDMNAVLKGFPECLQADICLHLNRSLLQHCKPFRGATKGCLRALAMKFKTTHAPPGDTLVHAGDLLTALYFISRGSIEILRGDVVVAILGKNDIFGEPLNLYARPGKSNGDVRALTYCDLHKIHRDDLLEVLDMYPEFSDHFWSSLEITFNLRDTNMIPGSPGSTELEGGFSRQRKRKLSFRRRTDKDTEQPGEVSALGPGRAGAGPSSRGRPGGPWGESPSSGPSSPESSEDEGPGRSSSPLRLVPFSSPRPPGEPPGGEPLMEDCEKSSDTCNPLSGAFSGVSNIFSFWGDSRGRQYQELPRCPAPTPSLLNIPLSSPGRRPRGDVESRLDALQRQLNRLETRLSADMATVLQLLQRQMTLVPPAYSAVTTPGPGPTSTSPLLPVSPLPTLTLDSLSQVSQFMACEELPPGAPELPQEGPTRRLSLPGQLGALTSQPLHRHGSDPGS

Row | SMILES | hERG current change (%, negative = inhibition) at 10uM
1 | O=C(CNS(=O)(=O)c1ccc(F)cc1)Nc1ccc(C(F)(F)F)cc1 | -5.85%
2 | Cc1nc(Nc2ccc(Cl)cc2)c2nnn(Cc3ccccc3)c2n1 | 21.2%
3 | CC(NC(=O)CSc1nc(=O)cc(N)n1CCc1ccccc1)c1ccccc1 (stereo not shown) | 1.91%
4 | CC(C)NS(=O)(=O)c1ccc(NC(=O)Cc2ccsc2)cc1 | 16.5%
5 | O=C(CCc1ccc(Oc2cc([N+](=O)[O-])cc([N+](=O)[O-])c2)cc1)N1CCCCCC1 | -30.2%
6 | COc1ccc(S(=O)(=O)N2CCC(C(=O)NCc3cccc(OC)c3)CC2)cc1 | -17.4%
7 | CCOc1cc(NC(=S)NCCCN2CCOCC2)c(OCC)cc1NC(=O)c1ccc(OC)cc1 | -0.532%
8 | CCOc1ccc(N2C(=O)CN(O)C=C3N=c4ccccc4=C32)cc1 | 4.61%
9 | COc1cccc(CN2CC(C(=O)NCCOc3cccnc3)CCC2=O)c1 (stereo not shown) | 20.2%
10 | O=C(COc1cccc(C(F)(F)F)c1)Nc1ccccc1N1CCCCC1 | 3.44%
11 | CCN(CC)CCNC(=O)C1CCCCN1S(=O)(=O)c1cccc([N+](=O)[O-])c1 (stereo not shown) | -16.3%
12 | CC1CCCN(CCC(=O)c2ccc(Br)cc2)C1.Cl (stereo not shown) | -64.4%
13 | CCOC(=O)CNC(=S)n1cnc(N)n1 | 19.9%
14 | N#Cc1cc([N+](=O)[O-])ccc1Oc1ccc(-c2nnco2)cc1 | -7.07%
15 | Cc1nc2ccc(NC(=O)c3ccc([N+](=O)[O-])cc3)cc2[nH]1 | -20.6%
16 | O=c1nc(N2CCOCC2)nc(N/N=C/c2ccc3c(c2)OCO3)[nH]1 | 4.84%
17 | CCOC(=O)/C=C/C(=O)N1CCN(C(=O)/C=C/C(=O)OCC)CC1 | -30.2%
18 | CN(C)CCCN(C(=O)c1ccc(S(=O)(=O)N2CCc3ccccc3C2)cc1)c1nc2c(F)cccc2s1.Cl | 4.85%
19 | O=C(C/C=N/OCc1ccc(Cl)cc1)c1cnc(-c2ccccc2)s1 | 12.5%
20 | CCN(CC)c1ccc(/C=N/N2CCN(Cc3ccccc3)CC2)c(O)c1 | -5.02%
21 | Cc1nc2ccccc2c(C)c1CC(=O)N(C)CC(=O)Nc1cccc(F)c1 | -55.9%
22 | COc1ccc(CN(C2CCCC2)S(=O)(=O)c2ccc(-n3cnnn3)cc2)cc1OC | -64%

Row | SMILES | hERG current change (%, negative = inhibition) at 10uM
23 | O=C(CSc1ncc(-c2ccccc2)[nH]1)Nc1cccc(O)c1 | -4.45%
24 | Cc1ccc(-n2nc(C)c(Sc3ccccc3[N+](=O)[O-])c2N)cc1 | -17.2%
25 | CCc1nnc(NC(=O)CSc2ccc(-c3nc4ccc(C)cc4[nH]3)cn2)s1 | 6.54%
26 | Nc1nonc1C(=O)OCC(=O)N1CCCCC1 | 13.7%
27 | Cc1cc(C)n(Cc2cccc(C(=O)N/N=C/c3ccncc3)c2)n1 | 9.21%
28 | Cc1ccccc1NC(=O)Nc1ccccc1C(=O)NCc1ccccc1 | -3.26%
29 | Cc1ccc(NC2CCCN(C(=O)CCC3(C)CC3)C2)cc1C (stereo not shown) | -23.1%
30 | O=C(CSc1ccc2nnc(CCNC(=O)c3ccccc3)n2n1)NC1CCCC1 | 17.7%
31 | O=C1C(=O)N(O)C2CCCCC2N1O (stereo not shown) | -2%
32 | O=c1c2cc(Cl)cc(Cl)c2nc2n1CCC2 | 15.1%
33 | CCn1c(SCC(=O)Nc2sc3c(c2C#N)CCCC3)nnc1-c1ccco1 | -15%
34 | Cc1cccc(N(C(=O)c2csnn2)C(C(=O)NC(C)(C)C)c2cccnc2)c1 (stereo not shown) | 22.3%
35 | COc1ccccc1N=Cc1c(O)n(C)c(=O)n(C)c1=O | -0.384%
36 | COC(=O)C1=C(c2ccc3ccccc3c2)C[C@@H]2CC[C@H]1N2C(=O)NC1Cc2ccccc2C1 | 14.2%
37 | O=C(O)C1C2C=CC(C2)C1C(=O)Nc1cccc(C(=O)N2CCCCC2)c1 (stereo not shown) | -9.28%
38 | CC(C)CC(C(=O)Nc1ccccc1)N1C(=O)C2C3C=CC(C3)C2C1=O (stereo not shown) | 9.56%
39 | Cc1ccc(C(=O)Nc2ccc(S(=O)(=O)Nc3ncccn3)cc2)cc1[N+](=O)[O-] | 13.4%
40 | COc1ccc(NC(=S)NCC(c2ccco2)N2CCCC2)cc1 (stereo not shown) | -12.2%
41 | C=CCn1c(SC2CCOC2=O)nc2scc(C3CC3)c2c1=O (stereo not shown) | -64.6%
42 | CCOCCCNC(=S)N(CCO)Cc1cc2cc3c(cc2[nH]c1=O)OCCO3 | 18%
43 | O=c1[nH]c(SCc2ccc(Cl)cc2)nc2c1CCC2 | 2.94%
